# The supplement of paper PMC3334620
# Whole data set: some 33,000 sequences, median “E-score (-0.5 to 0.5)” near -0.043, cut for the highest 2% near 0.37. The list shows a part of the results.
# Target: T1, Upc2 (UniProt Q12151)
# T1 sequence: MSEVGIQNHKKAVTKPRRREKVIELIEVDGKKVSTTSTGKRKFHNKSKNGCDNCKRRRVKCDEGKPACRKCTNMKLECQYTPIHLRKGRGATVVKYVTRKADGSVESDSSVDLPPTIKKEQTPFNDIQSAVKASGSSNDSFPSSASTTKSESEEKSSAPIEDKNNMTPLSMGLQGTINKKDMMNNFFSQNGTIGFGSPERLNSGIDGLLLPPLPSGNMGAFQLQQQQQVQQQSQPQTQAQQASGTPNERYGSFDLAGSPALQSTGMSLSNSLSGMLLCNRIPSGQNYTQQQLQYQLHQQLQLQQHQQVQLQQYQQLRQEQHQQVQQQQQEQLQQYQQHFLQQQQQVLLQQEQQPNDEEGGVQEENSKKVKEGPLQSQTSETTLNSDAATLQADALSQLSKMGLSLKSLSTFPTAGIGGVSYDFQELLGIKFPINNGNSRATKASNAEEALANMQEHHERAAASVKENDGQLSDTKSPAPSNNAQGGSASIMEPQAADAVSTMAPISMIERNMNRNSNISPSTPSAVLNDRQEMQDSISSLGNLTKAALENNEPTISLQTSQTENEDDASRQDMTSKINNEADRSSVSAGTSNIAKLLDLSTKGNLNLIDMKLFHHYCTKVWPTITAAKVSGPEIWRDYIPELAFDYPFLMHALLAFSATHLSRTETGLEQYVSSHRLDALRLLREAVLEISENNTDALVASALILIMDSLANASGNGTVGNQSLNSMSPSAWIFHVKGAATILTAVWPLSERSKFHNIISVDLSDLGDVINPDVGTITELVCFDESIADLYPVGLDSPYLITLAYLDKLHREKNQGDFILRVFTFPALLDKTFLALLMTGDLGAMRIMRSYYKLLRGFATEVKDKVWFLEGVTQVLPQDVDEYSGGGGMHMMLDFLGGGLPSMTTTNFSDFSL
# Assay: PBM E-score (8-mer binding enrichment) (E-score (-0.5 to 0.5)); higher = stronger / more preferred TF binding; most listed sequences are background and not binding sites
# Settings: protein concentration: 200 nM; construct: GST-full length
# Protocol: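 Universal 'all 10-mer' protein binding microarrays (Agilent AMADID 015681) probed with GST-tagged S. cerevisiae TFs (full-length or DBD) made by in vitro transcription/translation (PURExpress), about 100-200 nM. Bound TF was detected with fluorescent anti-GST. Each ungapped 8-mer (which stands for itself and its reverse complement) is scored by the PBM enrichment score (E-score), a modified Wilcoxon-Mann-Whitney statistic from -0.5 to +0.5, computed with the Universal PBM Analysis Suite. Scale: above 0.35 generally sequence-specific binding.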
row,Sequence,PBM E-score
1,GCCCTAAA,-0.0187
2,ACTCTTCG,0.178
3,ACCAAACG,0.4
4,ACTCCAGT,-0.0814
5,GAGTTTAC,0.121
6,CTACTGTC,-0.148
7,ACTAACAT,0.0896
8,AGTACGAG,0.428
9,AACGGCGT,0.283
10,CGACTTAG,0.213
11,GCTAACTA,0.0445
12,GAGTTCGA,0.0819
13,AATCGGGG,-0.249
14,AATATAGC,-0.108
15,AGAAGAAA,0.0534
16,GCTAGCAA,-0.184
17,CGCGGGGC,-0.036
18,CAGCCGCC,-0.17
19,ACTAGAGC,-0.0879
20,ACATAGGA,-0.115
21,GCTCTCGA,-0.208
22,GAGGTCCC,-0.202
23,AATTATCG,0.17
24,TGCGCACA,0.0459
25,TACTAGTA,0.0872

row,Sequence,PBM E-score
1,ATATTACC,-0.138
2,ATATCGAC,0.0601
3,CGTATTCA,0.313
4,CGATTACG,0.259
5,ATACCAGC,-0.184
6,AGGTTGAT,-0.157
7,ATTTGAAG,-0.0186
8,GACCTACC,-0.0781
9,CCGACTCA,-0.101
10,CAAGAGTA,-0.0891
11,GAGACCAC,-0.198
12,CGATCGGA,0.0957
13,AGTTTGTA,-0.0335
14,AATCGAAA,-0.00364
15,GCAACGAC,0.326
16,CTCATGTA,0.0445
17,AAAGCGGG,-0.135
18,CGCGACTC,-0.00274
19,TATAGAGA,0.0987
20,CGTGACAC,-0.0354
21,AGCAGATG,-0.221
22,CCATTTCA,-0.241
23,CCGGGTAC,0.262
24,CTCACCCA,-0.234
25,ATTAGACC,-0.152

row,Sequence,PBM E-score
1,CCGCAAAA,0.0377
2,CAACGACC,0.221
3,GTGGGAAA,-0.00915
4,AGGACCCC,-0.219
5,CGGGCCCA,-0.191
6,CCGATTCA,-0.172
7,ACAACTTC,0.00079
8,CGGCCTCA,0.0532
9,GAATTAGA,-0.0305
10,ACACTTTG,-0.0624
11,GCTGCAAA,0.00241
12,TTATGAAA,0.0712
13,AGCTCGTC,0.103
14,GACTATCC,-0.158
15,ATTAGTAG,-0.141
16,GCCACGGA,-0.271
17,AACAACTT,-0.016
18,CTCCCATC,-0.189
19,CAGAGACA,-0.356
20,ACACCTCT,-0.0564
21,AGCCTAGC,-0.103
22,AACCCTCT,-0.202
23,AGACCCGA,0.114
24,CCGCGTCA,-0.148
25,AATCGAAG,0.159

row,Sequence,PBM E-score
1,CAATCCTG,-0.13
2,CACTCCGG,-0.0799
3,ATGGCTGA,-0.139
4,CGCCGGAC,-0.2
5,CCGATGCC,-0.0622
6,ATTTGCGG,0.0282
7,TAGCGAGA,0.215
8,AACCCGAA,0.204
9,TGCTACCA,-0.19
10,CTACACTC,-0.0739
11,ACCTCTTG,-0.221
12,TAGCACGA,0.0364
13,GATCTGTA,-0.0783
14,GTATCTGA,0.134
15,AGGTCATG,-0.0294
16,CCGTGACA,-0.256
17,AGGCTTTG,-0.17
18,CGGGTGGC,0.0279
19,CTCCCGGC,-0.258
20,AAACGTCT,0.216
21,CGTTGTCA,-0.00138
22,AAGTGGAT,-0.121
23,AGGTCAGA,-0.199
24,ATGCTCGG,0.0505
25,TTAGTCAA,-0.0747

row,Sequence,PBM E-score
1,GACTGGGC,-0.172
2,GAATACTC,-0.0364
3,ACGTGGGG,-0.115
4,ATACGAGA,0.482
5,CGATCTGC,0.0241
6,GCGAGGTA,0.244
7,GTCGATGA,-0.0939
8,CCGAGGCC,0.102
9,CAACTGTC,-0.249
10,ATACTTCC,-0.0854
11,CCTCTAGA,-0.103
12,ATACTTGC,-0.0735
13,GCGAGTAC,0.204
14,AGTCAGCA,-0.16
15,ACAGGGGA,-0.12
16,CCTTGTCC,-0.205
17,TACGTGGA,0.189
18,CGTTGAAG,0.186
19,CTCTGCTC,-0.214
20,AGCTTAAT,0.0773
21,ATACCCTG,0.00625
22,AGAATAAG,-0.128
23,GCCATCTA,-0.299
24,CCTGTAGA,-0.136
25,AGATCAAA,-0.104

row,Sequence,PBM E-score
1,CTAAGCCA,-0.28
2,CTGAGTAA,-0.265
3,ATAATAAC,0.103
4,ACTCCACG,0.0814
5,AAATGAAG,0.102
6,AACGCGCA,0.0842
7,ACTGCTGA,-0.176
8,ACAAACCA,-0.183
9,AGTTGGAC,-0.148
10,CTCCTTGA,-0.347
11,ACCAAGCT,-0.0663
12,CATGTTGG,-0.0749
13,GGCAATCA,-0.196
14,CACCAGGG,-0.261
15,ACGAGTAT,0.376
16,AGTCCCAG,-0.0172
17,AAAAAATT,0.0974
18,CCGTTAAC,0.298
19,GGGCCGCA,-0.0995
20,CCTGGTGC,-0.16
21,GCGGAGGA,-0.187
22,AAACGGAA,0.36
23,ACGCGTGG,0.0348
24,CCAGACGC,-0.196
25,CAACTAAC,0.0136

row,Sequence,PBM E-score
1,CCTATGGA,-0.264
2,ATGTGTAC,0.216
3,ATGAGCTG,-0.187
4,AGCACTAC,-0.182
5,ACCCTGCG,-0.145
6,AAGTGCCT,-0.168
7,CAACCGGC,-0.159
8,ATTAGCTA,-0.0268
9,ATTCGCCC,-0.215
10,ATAGCGCC,-0.111
11,CAAGCAGA,-0.0226
12,AACCTAAC,-0.0536
13,AAGGTGGG,-0.181
14,TGCCCAAA,-0.181
15,CCAGATAA,-0.0256
16,GGCATTTA,-0.274
17,CTGTGGCC,-0.212
18,AGCTGTTC,-0.133
19,AAACAGGT,-0.0304
20,CAATTAAG,-0.014
21,GACCGTGA,-0.166
22,AAAGCAAA,0.0651
